# According to PMC6128653:
# Chains of the proteins cited; added tags and fusions are not shown.
# UniProt A5D8V7: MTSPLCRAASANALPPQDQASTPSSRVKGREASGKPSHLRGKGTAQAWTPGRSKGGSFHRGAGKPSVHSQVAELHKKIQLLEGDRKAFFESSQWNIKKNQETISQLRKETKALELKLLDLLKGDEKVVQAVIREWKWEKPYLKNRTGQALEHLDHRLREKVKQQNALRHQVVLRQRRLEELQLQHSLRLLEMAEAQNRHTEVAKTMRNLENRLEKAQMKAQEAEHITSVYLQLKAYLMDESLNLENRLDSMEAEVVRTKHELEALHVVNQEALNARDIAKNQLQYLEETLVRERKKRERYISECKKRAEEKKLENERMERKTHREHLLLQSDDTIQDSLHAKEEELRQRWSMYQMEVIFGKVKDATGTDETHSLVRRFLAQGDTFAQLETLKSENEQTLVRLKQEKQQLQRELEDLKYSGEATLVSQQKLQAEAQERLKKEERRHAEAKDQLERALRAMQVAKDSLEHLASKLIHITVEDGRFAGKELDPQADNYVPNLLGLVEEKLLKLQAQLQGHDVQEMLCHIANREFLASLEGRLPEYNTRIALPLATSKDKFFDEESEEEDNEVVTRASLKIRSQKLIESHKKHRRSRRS
# Like-named read-outs stand apart in the source and are kept apart here. No constants are given. Whether binding was seen depends on the method and setting. For part of these data: Binding seen in cells or lysates may run through a third protein. Some entries that bind do so weakly or less than the wild type. Tags and fused reporters may be left off the sequences shown.
# Legend:
# [1] = biological target: T1, CCDC114, yeast two-hybrid fusion (human) (UniProt Q96M63); experiment: two-hybrid; binary yeast two-hybrid; reporter genes HIS3 and ADE2 (growth on SD-LWAH) and LacZ (β-galactosidase filter lift assay)
# T1 sequence: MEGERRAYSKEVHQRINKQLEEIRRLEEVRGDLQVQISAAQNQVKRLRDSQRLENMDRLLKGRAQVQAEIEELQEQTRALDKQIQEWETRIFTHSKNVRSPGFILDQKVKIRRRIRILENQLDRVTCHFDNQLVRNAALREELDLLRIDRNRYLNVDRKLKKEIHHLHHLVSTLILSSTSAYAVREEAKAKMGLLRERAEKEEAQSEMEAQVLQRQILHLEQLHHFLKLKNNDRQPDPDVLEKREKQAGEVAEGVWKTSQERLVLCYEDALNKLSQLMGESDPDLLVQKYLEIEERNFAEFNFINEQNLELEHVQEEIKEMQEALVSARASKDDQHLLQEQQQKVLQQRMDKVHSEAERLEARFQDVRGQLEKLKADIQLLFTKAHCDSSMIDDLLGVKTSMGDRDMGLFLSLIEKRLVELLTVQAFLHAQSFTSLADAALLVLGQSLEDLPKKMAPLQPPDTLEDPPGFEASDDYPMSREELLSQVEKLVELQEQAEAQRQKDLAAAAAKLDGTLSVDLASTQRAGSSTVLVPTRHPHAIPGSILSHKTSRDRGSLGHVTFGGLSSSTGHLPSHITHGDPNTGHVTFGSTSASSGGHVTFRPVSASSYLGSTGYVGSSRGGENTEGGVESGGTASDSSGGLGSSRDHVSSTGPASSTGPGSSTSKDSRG
# [2] = biological target: T2, MNS1 (meiosis specific nuclear structural 1 protein), myc- or FLAG-tagged, expressed in HEK293 cells (human) (UniProt Q8NEH6); experiment: co-IP; myc- and FLAG-tagged proteins co-expressed in HEK293 cells; lysis in 50 mM Tris-Cl pH 8.0, 150 mM NaCl, 1% IGEPAL, 0.5 mM EDTA, 10% glycerol; rabbit antibody overnight at 4°C, MagSi/protein A beads; blot with mouse anti-myc or anti-FLAG
# T2 sequence: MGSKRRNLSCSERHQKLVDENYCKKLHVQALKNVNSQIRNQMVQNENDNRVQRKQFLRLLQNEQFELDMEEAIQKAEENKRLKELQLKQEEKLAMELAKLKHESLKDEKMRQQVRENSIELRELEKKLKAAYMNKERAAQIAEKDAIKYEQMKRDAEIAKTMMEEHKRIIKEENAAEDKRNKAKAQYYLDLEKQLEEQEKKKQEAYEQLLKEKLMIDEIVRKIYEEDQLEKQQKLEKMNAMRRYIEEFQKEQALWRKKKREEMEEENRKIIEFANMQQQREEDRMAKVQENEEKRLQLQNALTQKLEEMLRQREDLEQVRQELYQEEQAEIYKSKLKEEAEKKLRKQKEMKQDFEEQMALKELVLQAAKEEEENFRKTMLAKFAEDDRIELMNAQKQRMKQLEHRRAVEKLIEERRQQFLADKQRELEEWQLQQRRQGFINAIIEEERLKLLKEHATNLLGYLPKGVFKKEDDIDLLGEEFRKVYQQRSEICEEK
# [3] = biological target: T3, CCDC114 (ODA docking complex component), myc- or FLAG-tagged, expressed in HEK293 cells (human) (UniProt Q96M63); experiment: as above
# T3 sequence: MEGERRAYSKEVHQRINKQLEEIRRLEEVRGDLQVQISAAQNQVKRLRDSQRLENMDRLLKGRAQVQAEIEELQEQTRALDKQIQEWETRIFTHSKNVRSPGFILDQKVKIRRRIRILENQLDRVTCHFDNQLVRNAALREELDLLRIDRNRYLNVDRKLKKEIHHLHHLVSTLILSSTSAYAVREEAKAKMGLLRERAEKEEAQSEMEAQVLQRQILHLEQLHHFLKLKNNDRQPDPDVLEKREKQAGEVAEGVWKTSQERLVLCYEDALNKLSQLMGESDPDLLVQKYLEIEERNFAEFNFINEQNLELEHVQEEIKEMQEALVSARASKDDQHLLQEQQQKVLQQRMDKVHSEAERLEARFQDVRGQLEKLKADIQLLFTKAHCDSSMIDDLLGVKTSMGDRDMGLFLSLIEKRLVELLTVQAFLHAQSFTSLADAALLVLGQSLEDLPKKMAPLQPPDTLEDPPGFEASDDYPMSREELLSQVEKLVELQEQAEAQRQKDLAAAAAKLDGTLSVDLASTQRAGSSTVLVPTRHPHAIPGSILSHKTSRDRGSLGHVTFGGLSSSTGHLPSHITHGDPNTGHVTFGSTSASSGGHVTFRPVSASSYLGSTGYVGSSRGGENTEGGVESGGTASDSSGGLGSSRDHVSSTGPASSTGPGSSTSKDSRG
# [4] = biological target: MNS1, yeast two-hybrid fusion (human) (UniProt Q8NEH6); experiment: two-hybrid; binary yeast two-hybrid; reporter genes HIS3 and ADE2 (growth on SD-LWAH) and LacZ (β-galactosidase filter lift assay)
# [5] = biological target: T1, CCDC114, yeast two-hybrid fusion (human); experiment: as above; remark: listed apart in the source
molecule,measurement,setting,value
"CCDC151, yeast two-hybrid fusion (from UniProt A5D8V7 1-595)",binding,[1],binds
"CCDC114 (ODA docking complex component), myc- or FLAG-tagged, expressed in HEK293 cells (protein, UniProt Q96M63 1-670) MEGERRAYSKEVHQRINKQLEEIRRLEEVRGDLQVQISAAQNQVKRLRDSQRLENMDRLLKGRAQVQAEIEELQEQTRALDKQIQEWETRIFTHSKNVRSPGFILDQKVKIRRRIRILENQLDRVTCHFDNQLVRNAALREELDLLRIDRNRYLNVDRKLKKEIHHLHHLVSTLILSSTSAYAVREEAKAKMGLLRERAEKEEAQSEMEAQVLQRQILHLEQLHHFLKLKNNDRQPDPDVLEKREKQAGEVAEGVWKTSQERLVLCYEDALNKLSQLMGESDPDLLVQKYLEIEERNFAEFNFINEQNLELEHVQEEIKEMQEALVSARASKDDQHLLQEQQQKVLQQRMDKVHSEAERLEARFQDVRGQLEKLKADIQLLFTKAHCDSSMIDDLLGVKTSMGDRDMGLFLSLIEKRLVELLTVQAFLHAQSFTSLADAALLVLGQSLEDLPKKMAPLQPPDTLEDPPGFEASDDYPMSREELLSQVEKLVELQEQAEAQRQKDLAAAAAKLDGTLSVDLASTQRAGSSTVLVPTRHPHAIPGSILSHKTSRDRGSLGHVTFGGLSSSTGHLPSHITHGDPNTGHVTFGSTSASSGGHVTFRPVSASSYLGSTGYVGSSRGGENTEGGVESGGTASDSSGGLGSSRDHVSSTGPASSTGPGSSTSKDSRG",binding,[2],binds
"MNS1 (meiosis specific nuclear structural 1 protein), myc- or FLAG-tagged, expressed in HEK293 cells (protein, UniProt Q8NEH6 1-495) MGSKRRNLSCSERHQKLVDENYCKKLHVQALKNVNSQIRNQMVQNENDNRVQRKQFLRLLQNEQFELDMEEAIQKAEENKRLKELQLKQEEKLAMELAKLKHESLKDEKMRQQVRENSIELRELEKKLKAAYMNKERAAQIAEKDAIKYEQMKRDAEIAKTMMEEHKRIIKEENAAEDKRNKAKAQYYLDLEKQLEEQEKKKQEAYEQLLKEKLMIDEIVRKIYEEDQLEKQQKLEKMNAMRRYIEEFQKEQALWRKKKREEMEEENRKIIEFANMQQQREEDRMAKVQENEEKRLQLQNALTQKLEEMLRQREDLEQVRQELYQEEQAEIYKSKLKEEAEKKLRKQKEMKQDFEEQMALKELVLQAAKEEEENFRKTMLAKFAEDDRIELMNAQKQRMKQLEHRRAVEKLIEERRQQFLADKQRELEEWQLQQRRQGFINAIIEEERLKLLKEHATNLLGYLPKGVFKKEDDIDLLGEEFRKVYQQRSEICEEK",binding,[3],binds
"MNS1, yeast two-hybrid fusion (protein, UniProt Q8NEH6 1-495) MGSKRRNLSCSERHQKLVDENYCKKLHVQALKNVNSQIRNQMVQNENDNRVQRKQFLRLLQNEQFELDMEEAIQKAEENKRLKELQLKQEEKLAMELAKLKHESLKDEKMRQQVRENSIELRELEKKLKAAYMNKERAAQIAEKDAIKYEQMKRDAEIAKTMMEEHKRIIKEENAAEDKRNKAKAQYYLDLEKQLEEQEKKKQEAYEQLLKEKLMIDEIVRKIYEEDQLEKQQKLEKMNAMRRYIEEFQKEQALWRKKKREEMEEENRKIIEFANMQQQREEDRMAKVQENEEKRLQLQNALTQKLEEMLRQREDLEQVRQELYQEEQAEIYKSKLKEEAEKKLRKQKEMKQDFEEQMALKELVLQAAKEEEENFRKTMLAKFAEDDRIELMNAQKQRMKQLEHRRAVEKLIEERRQQFLADKQRELEEWQLQQRRQGFINAIIEEERLKLLKEHATNLLGYLPKGVFKKEDDIDLLGEEFRKVYQQRSEICEEK",binding,[4],binds
same,binding,[5],binds
"CCDC114, yeast two-hybrid fusion (protein, UniProt Q96M63 1-670) MEGERRAYSKEVHQRINKQLEEIRRLEEVRGDLQVQISAAQNQVKRLRDSQRLENMDRLLKGRAQVQAEIEELQEQTRALDKQIQEWETRIFTHSKNVRSPGFILDQKVKIRRRIRILENQLDRVTCHFDNQLVRNAALREELDLLRIDRNRYLNVDRKLKKEIHHLHHLVSTLILSSTSAYAVREEAKAKMGLLRERAEKEEAQSEMEAQVLQRQILHLEQLHHFLKLKNNDRQPDPDVLEKREKQAGEVAEGVWKTSQERLVLCYEDALNKLSQLMGESDPDLLVQKYLEIEERNFAEFNFINEQNLELEHVQEEIKEMQEALVSARASKDDQHLLQEQQQKVLQQRMDKVHSEAERLEARFQDVRGQLEKLKADIQLLFTKAHCDSSMIDDLLGVKTSMGDRDMGLFLSLIEKRLVELLTVQAFLHAQSFTSLADAALLVLGQSLEDLPKKMAPLQPPDTLEDPPGFEASDDYPMSREELLSQVEKLVELQEQAEAQRQKDLAAAAAKLDGTLSVDLASTQRAGSSTVLVPTRHPHAIPGSILSHKTSRDRGSLGHVTFGGLSSSTGHLPSHITHGDPNTGHVTFGSTSASSGGHVTFRPVSASSYLGSTGYVGSSRGGENTEGGVESGGTASDSSGGLGSSRDHVSSTGPASSTGPGSSTSKDSRG",binding,[5],binds
"DNAI1 (ODA protein), myc- or FLAG-tagged, expressed in HEK293 cells (protein, UniProt Q9UI46 1-699) MIPASAKAPHKQPHKQSISIGRGTRKRDEDSGTEVGEGTDEWAQSKATVRPPDQLELTDAELKEEFTRILTANNPHAPQNIVRYSFKEGTYKPIGFVNQLAVHYTQVGNLIPKDSDEGRRQHYRDELVAGSQESVKVISETGNLEEDEEPKELETEPGSQTDVPAAGAAEKVTEEELMTPKQPKERKLTNQFNFSERASQTYNNPVRDRECQTEPPPRTNFSATANQWEIYDAYVEELEKQEKTKEKEKAKTPVAKKSGKMAMRKLTSMESQTDDLIKLSQAAKIMERMVNQNTYDDIAQDFKYYDDAADEYRDQVGTLLPLWKFQNDKAKRLSVTALCWNPKYRDLFAVGYGSYDFMKQSRGMLLLYSLKNPSFPEYMFSSNSGVMCLDIHVDHPYLVAVGHYDGNVAIYNLKKPHSQPSFCSSAKSGKHSDPVWQVKWQKDDMDQNLNFFSVSSDGRIVSWTLVKRKLVHIDVIKLKVEGSTTEVPEGLQLHPVGCGTAFDFHKEIDYMFLVGTEEGKIYKCSKSYSSQFLDTYDAHNMSVDTVSWNPYHTKVFMSCSSDWTVKIWDHTIKTPMFIYDLNSAVGDVAWAPYSSTVFAAVTTDGKAHIFDLAINKYEAICNQPVAAKKNRLTHVQFNLIHPIIIVGDDRGHIISLKLSPNLRKMPKEKKGQEVQKGPAVEIAKLDKLLNLVREVKIKT",binding,[2],no binding
"DNAI2 (ODA protein), myc- or FLAG-tagged, expressed in HEK293 cells (protein, UniProt Q9GZS0 1-605) MEIVYVYVKKRSEFGKQCNFSDRQAELNIDIMPNPELAEQFVERNPVDTGIQCSISMSEHEANSERFEMETRGVNHVEGGWPKDVNPLELEQTIRFRKKVEKDENYVNAIMQLGSIMEHCIKQNNAIDIYEEYFNDEEAMEVMEEDPSAKTINVFRDPQEIKRAATHLSWHPDGNRKLAVAYSCLDFQRAPVGMSSDSYIWDLENPNKPELALKPSSPLVTLEFNPKDSHVLLGGCYNGQIACWDTRKGSLVAELSTIESSHRDPVYGTIWLQSKTGTECFSASTDGQVMWWDIRKMSEPTEVVILDITKKEQLENALGAISLEFESTLPTKFMVGTEQGIVISCNRKAKTSAEKIVCTFPGHHGPIYALQRNPFYPKNFLTVGDWTARIWSEDSRESSIMWTKYHMAYLTDAAWSPVRPTVFFTTRMDGTLDIWDFMFEQCDPTLSLKVCDEALFCLRVQDNGCLIACGSQLGTTTLLEVSPGLSTLQRNEKNVASSMFERETRREKILEARHREMRLKEKGKAEGRDEEQTDEELAVDLEALVSKAEEEFFDIIFAELKKKEADAIKLTPVPQQPSPEEDQVVEEGEEAAGEEGDEEVEEDLA",binding,[2],no binding
"DNAL1 (ODA protein), myc- or FLAG-tagged, expressed in HEK293 cells (protein, UniProt Q4LDG9 1-190) MAKATTIKEALARWEEKTGQRPSEAKEIKLYAQIPPIEKMDASLSMLANCEKLSLSTNCIEKIANLNGLKNLRILSLGRNNIKNLNGLEAVGDTLEELWISYNFIEKLKGIHIMKKLKILYMSNNLVKDWAEFVKLAELPCLEDLVFVGNPLEEKHSAENNWIEEATKRVPKLKKLDGTPVIKGDEEEDN",binding,[2],no binding
